Measurements as given in PMC6599576 (Journal of molecular biology, 2019).

B1: Hsp90Ec-Q358C (natural protein)
chain: not shown
B2: Hsp90Ec-E584C (natural protein)
chain: not shown

Biological target: the molecule itself
Test: cross-linking

Protein	binding result
B1	binds
B2	binds
